Laboratory results reported in PMC9911399, “Two distinct binding modes provide the RNA-binding protein RbFox with extraordinary sequence specificity”.
Residue numbers refer to the chain shown, from its start. Some of the results follow.

T1: RBFOX1 RRM RbFoxmut (Fox-RRM*) (Homo sapiens, UniProt Q9NWB1 109-208, R118D;E147R;N151S;E152T)
T1 sequence: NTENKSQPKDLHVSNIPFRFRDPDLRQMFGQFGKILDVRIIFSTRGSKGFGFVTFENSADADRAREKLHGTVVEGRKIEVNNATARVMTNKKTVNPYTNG

B1: ACCAUAU (DNA:RNA)
RNA: GGGAGACCGGAAUUCAGAUUGUCCACCAUAUUUAAAUCCCGUCGUAGCCACCA
DNA 1: CAATCTGAATTCCGGTCTCCC
DNA 2: TGGTGGCTACGACGGGATT
B2: GUCUUGA (DNA:RNA)
RNA: B1 RNA with A25G, C26U, A28U, A30G, U31A
DNA 1: CAATCTGAATTCCGGTCTCCC
DNA 2: TGGTGGCTACGACGGGATT
B3: ACAUGGC (DNA:RNA)
RNA: B1 RNA with C27A, A28U, U29G, A30G, U31C
DNA 1: CAATCTGAATTCCGGTCTCCC
DNA 2: TGGTGGCTACGACGGGATT
B4: UAGCACC (DNA:RNA)
RNA: GGGAGACCGGAAUUCAGAUUGUCCUAGCACCUUAAAUCCCGUCGUAGCCACCA
DNA 1: CAATCTGAATTCCGGTCTCCC
DNA 2: TGGTGGCTACGACGGGATT
B5: UUAGGUG (DNA:RNA)
RNA: B4 RNA with A26U, G27A, C28G, A29G, C30U, C31G
DNA 1: CAATCTGAATTCCGGTCTCCC
DNA 2: TGGTGGCTACGACGGGATT
B6: AUUCAGC (DNA:RNA)
RNA: B4 RNA with U25A, A26U, G27U, C30G
DNA 1: CAATCTGAATTCCGGTCTCCC
DNA 2: TGGTGGCTACGACGGGATT
B7: UGACCUA (DNA:RNA)
RNA: B4 RNA with A26G, G27A, A29C, C30U, C31A
DNA 1: CAATCTGAATTCCGGTCTCCC
DNA 2: TGGTGGCTACGACGGGATT
B8: CCGCUUA (DNA:RNA)
RNA: B1 RNA with A25C, C27G, A28C, A30U, U31A
DNA 1: CAATCTGAATTCCGGTCTCCC
DNA 2: TGGTGGCTACGACGGGATT
B9: CGGUAUC (DNA:RNA)
RNA: B4 RNA with U25C, A26G, C28U, C30U
DNA 1: CAATCTGAATTCCGGTCTCCC
DNA 2: TGGTGGCTACGACGGGATT
B10: GAAGGGU (DNA:RNA)
RNA: B1 RNA with A25G, C26A, C27A, A28G, U29G, A30G
DNA 1: CAATCTGAATTCCGGTCTCCC
DNA 2: TGGTGGCTACGACGGGATT
B11: AGUCUGG (DNA:RNA)
RNA: B1 RNA with C26G, C27U, A28C, A30G, U31G
DNA 1: CAATCTGAATTCCGGTCTCCC
DNA 2: TGGTGGCTACGACGGGATT
B12: UAUGUAC (DNA:RNA)
RNA: B4 RNA with G27U, C28G, A29U, C30A
DNA 1: CAATCTGAATTCCGGTCTCCC
DNA 2: TGGTGGCTACGACGGGATT
B13: AUAUGGU (DNA:RNA)
RNA: B1 RNA with C26U, C27A, A28U, U29G, A30G
DNA 1: CAATCTGAATTCCGGTCTCCC
DNA 2: TGGTGGCTACGACGGGATT
B14: CAGCCGG (DNA:RNA)
RNA: B4 RNA with U25C, A29C, C30G, C31G
DNA 1: CAATCTGAATTCCGGTCTCCC
DNA 2: TGGTGGCTACGACGGGATT
B15: CGCUGAC (DNA:RNA)
RNA: B1 RNA with A25C, C26G, A28U, U29G, U31C
DNA 1: CAATCTGAATTCCGGTCTCCC
DNA 2: TGGTGGCTACGACGGGATT
B16: AACAGCU (DNA:RNA)
RNA: B1 RNA with C26A, U29G, A30C
DNA 1: CAATCTGAATTCCGGTCTCCC
DNA 2: TGGTGGCTACGACGGGATT
B17: GCUCUAG (DNA:RNA)
RNA: B1 RNA with A25G, C27U, A28C, U31G
DNA 1: CAATCTGAATTCCGGTCTCCC
DNA 2: TGGTGGCTACGACGGGATT
B18: AUGGAUU (DNA:RNA)
RNA: B1 RNA with C26U, C27G, A28G, U29A, A30U
DNA 1: CAATCTGAATTCCGGTCTCCC
DNA 2: TGGTGGCTACGACGGGATT
B19: AAGACUG (DNA:RNA)
RNA: B1 RNA with C26A, C27G, U29C, A30U, U31G
DNA 1: CAATCTGAATTCCGGTCTCCC
DNA 2: TGGTGGCTACGACGGGATT
B20: UCUGAUC (DNA:RNA)
RNA: B4 RNA with A26C, G27U, C28G, C30U
DNA 1: CAATCTGAATTCCGGTCTCCC
DNA 2: TGGTGGCTACGACGGGATT
B21: CGCGAGU (DNA:RNA)
RNA: B1 RNA with A25C, C26G, A28G, U29A, A30G
DNA 1: CAATCTGAATTCCGGTCTCCC
DNA 2: TGGTGGCTACGACGGGATT
B22: AUGUAUG (DNA:RNA)
RNA: B4 RNA with U25A, A26U, C28U, C30U, C31G
DNA 1: CAATCTGAATTCCGGTCTCCC
DNA 2: TGGTGGCTACGACGGGATT
B23: GGAAGGU (DNA:RNA)
RNA: B1 RNA with A25G, C26G, C27A, U29G, A30G
DNA 1: CAATCTGAATTCCGGTCTCCC
DNA 2: TGGTGGCTACGACGGGATT
B24: UGGAUUA (DNA:RNA)
RNA: B1 RNA with A25U, C26G, C27G, A30U, U31A
DNA 1: CAATCTGAATTCCGGTCTCCC
DNA 2: TGGTGGCTACGACGGGATT
B25: ACAGAUA (DNA:RNA)
RNA: B1 RNA with C27A, A28G, U29A, A30U, U31A
DNA 1: CAATCTGAATTCCGGTCTCCC
DNA 2: TGGTGGCTACGACGGGATT
B26: CGCAACG (DNA:RNA)
RNA: B1 RNA with A25C, C26G, U29A, A30C, U31G
DNA 1: CAATCTGAATTCCGGTCTCCC
DNA 2: TGGTGGCTACGACGGGATT
B27: UACUCAG (DNA:RNA)
RNA: B1 RNA with A25U, C26A, A28U, U29C, U31G
DNA 1: CAATCTGAATTCCGGTCTCCC
DNA 2: TGGTGGCTACGACGGGATT
B28: CUACCUC (DNA:RNA)
RNA: B4 RNA with U25C, A26U, G27A, A29C, C30U
DNA 1: CAATCTGAATTCCGGTCTCCC
DNA 2: TGGTGGCTACGACGGGATT
B29: UACUGAU (DNA:RNA)
RNA: B1 RNA with A25U, C26A, A28U, U29G
DNA 1: CAATCTGAATTCCGGTCTCCC
DNA 2: TGGTGGCTACGACGGGATT
B30: GAGCGGA (DNA:RNA)
RNA: B4 RNA with U25G, A29G, C30G, C31A
DNA 1: CAATCTGAATTCCGGTCTCCC
DNA 2: TGGTGGCTACGACGGGATT
B31: UUGAGUU (DNA:RNA)
RNA: B1 RNA with A25U, C26U, C27G, U29G, A30U
DNA 1: CAATCTGAATTCCGGTCTCCC
DNA 2: TGGTGGCTACGACGGGATT

Target: T1, RBFOX1 RRM RbFoxmut (Fox-RRM*)
Assay: EMSA; HiTS-Eq, 1 nM pool, 10 min; buffer printed only for the single-RNA assays: 10 mM Tris pH 7.5, 150 mM NaCl, 3.4 mM EDTA, 0.001% NP-40, 30 C
Conditions: tags: His6 N-terminal (pET28a); label: 5' 32P
Method in brief: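 Purified RbFox RRM (wild type or mutant) was equilibrated for 10 min in 50 µL with 1 nM of a 5′-radiolabelled pool of RNA with 7 randomized nucleotides, its flanks annealed to DNA oligonucleotides, across increasing protein concentrations. Free RNA was separated by 8% native PAGE, excised, reverse-transcribed, PCR-barcoded and sequenced on an Illumina HiSeq 2500. Relative association constants came from read-count changes of each variant against the control reaction, normalised to the cognate motif.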

| Binder | binding signal |
| --- | --- |
| B1 | 0.104 KA relative to UGCAUGU |
| B2 | 0.407 KA relative to UGCAUGU |
| B3 | 0.151 KA relative to UGCAUGU |
| B4 | 0.0974 KA relative to UGCAUGU |
| B5 | 0.139 KA relative to UGCAUGU |
| B6 | 0.0984 KA relative to UGCAUGU |
| B7 | 0.107 KA relative to UGCAUGU |
| B8 | 0.0982 KA relative to UGCAUGU |
| B9 | 0.245 KA relative to UGCAUGU |
| B10 | 0.0708 KA relative to UGCAUGU |
| B11 | 0.096 KA relative to UGCAUGU |
| B12 | 0.107 KA relative to UGCAUGU |
| B13 | 0.124 KA relative to UGCAUGU |
| B14 | 0.0723 KA relative to UGCAUGU |
| B15 | 0.112 KA relative to UGCAUGU |
| B16 | 0.0625 KA relative to UGCAUGU |

| Binder | binding signal |
| --- | --- |
| B17 | 0.121 KA relative to UGCAUGU |
| B18 | 0.156 KA relative to UGCAUGU |
| B19 | 0.103 KA relative to UGCAUGU |
| B20 | 0.0577 KA relative to UGCAUGU |
| B21 | 0.115 KA relative to UGCAUGU |
| B22 | 1.19 KA relative to UGCAUGU |
| B23 | 0.0479 KA relative to UGCAUGU |
| B24 | 0.106 KA relative to UGCAUGU |
| B25 | 0.11 KA relative to UGCAUGU |
| B26 | 0.106 KA relative to UGCAUGU |
| B27 | 0.0688 KA relative to UGCAUGU |
| B28 | 0.0669 KA relative to UGCAUGU |
| B29 | 0.0723 KA relative to UGCAUGU |
| B30 | 0.0939 KA relative to UGCAUGU |
| B31 | 0.122 KA relative to UGCAUGU |
